Laboratory results reported in PubChem BioAssay AID1159614 (National Center for Advancing Translational Sciences (NCATS), 2016).
Screen size: about 45,000 compounds; about 65 (0.1%) were called active. Calls follow the shape of the dose curve; as a rule, active = well fitted activation curve with a large enough effect; inconclusive = small, poorly fitted or top-dose-only effect; inactive = no such curve, though single readings can be large or run the other way. This is one part of the list.

target: Galactocerebrosidase (Homo sapiens) (UniProt P54803); assay: A Novel Cell-Based Assay to Identify Small Molecules for B -Galactocerebrosidase; conditions: 145M-Twi-hGALC-G270D cells (Twitcher mouse brain line with human GALC G270D), HMU-beta-Gal fluorescence, 48 h; series mostly up to 57.5 µM; activation: at the top concentration; also: 0% is about no effect; nearly all actives have a fitted effect of over 65% in size
How it was run: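 Fluorogenic HMU-b-Gal hydrolysis (0.1 mM final, pH 5.2 citrate-phosphate with 1 mg/mL sodium taurocholate; carbonate stop buffer) measures mutant GALC activity after compound treatment of live 145M-Twi Twitcher brain cells stably carrying human GALC-G270D, with wild-type GALC line alongside; activation sought.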

UniProt P54803, sequence (P54803 whole entry, looked up): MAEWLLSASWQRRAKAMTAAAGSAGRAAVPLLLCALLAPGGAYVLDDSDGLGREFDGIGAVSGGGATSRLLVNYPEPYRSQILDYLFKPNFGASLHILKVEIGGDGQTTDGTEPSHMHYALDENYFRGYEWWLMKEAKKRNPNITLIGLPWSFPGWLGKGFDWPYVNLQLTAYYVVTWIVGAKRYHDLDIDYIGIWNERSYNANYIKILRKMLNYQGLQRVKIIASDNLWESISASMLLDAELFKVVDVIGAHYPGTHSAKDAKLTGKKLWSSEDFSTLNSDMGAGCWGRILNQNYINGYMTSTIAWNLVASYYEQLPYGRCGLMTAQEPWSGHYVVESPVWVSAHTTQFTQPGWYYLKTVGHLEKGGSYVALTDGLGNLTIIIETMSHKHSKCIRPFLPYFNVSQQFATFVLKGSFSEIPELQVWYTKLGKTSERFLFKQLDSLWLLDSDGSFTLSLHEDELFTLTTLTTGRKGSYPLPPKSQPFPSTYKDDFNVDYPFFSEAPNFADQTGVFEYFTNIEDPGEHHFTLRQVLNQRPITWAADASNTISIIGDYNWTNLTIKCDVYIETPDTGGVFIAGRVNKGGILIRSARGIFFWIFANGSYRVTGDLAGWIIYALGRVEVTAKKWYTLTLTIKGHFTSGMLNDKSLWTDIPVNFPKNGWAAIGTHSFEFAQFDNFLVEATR

activation, inactive:
Cc1nn(-c2ccccc2)c(OC(=O)c2cccc(Br)c2)c1S(=O)(=O)c1ccccc1 -20.4%
N#Cc1nc(-c2ccc(COc3ccccc3)o2)oc1NCc1cccnc1 -11%
CSc1ccc(CCNC(=O)C2=C(C)C(=O)OC23CCCCC3)cc1 -13.8%
COc1ccc(NC(=O)CN2C(=O)C(C)(C)c3ccccc32)cc1Cl -17.1%
Cc1cccc(Cn2c(=O)n(CC3CCC(C(=O)NC(C)C)CC3)c(=O)c3sccc32)c1 (stereo not given) -10.4%
COc1cccc(C2CC(=O)Nc3cc(OC)c(OC)c(OC)c32)c1OC(C)C (stereo not given) -7.68%
COc1cc(CNC(=O)c2sc3ncccc3c2-n2cccc2)cc(OC)c1OC -4.41%
CCC1NC(=O)c2cc(S(N)(=O)=O)c(Cl)cc2N1 (stereo not given) -8.13%
Cc1cccc(N2CCN(C(=O)Cn3ncc4c3-c3cc(C)ccc3OC4)CC2C)c1 (stereo not given) -9.81%
CC(=O)Oc1ccc(C2(c3ccc(OC(C)=O)cc3)C(=O)Nc3ccccc32)cc1 -14.4%
COC(=O)c1ccc(OCC2c3cc(OC)c(OC)cc3CCN2C(=O)c2ccccc2C)cc1 (stereo not given) -17.7%
Cc1nc(N2CCCC2)c2c(C(=O)N3CCN(c4ccc(F)cc4)CC3)c(C)oc2n1 -5.09%
Cc1ccc(-c2nnc(Nc3ccc(Br)cc3)c3ccccc23)cc1S(=O)(=O)NCC1CCCO1 (stereo not given) -17.2%
COc1cccc(-c2nc(SCC(=O)NCC3CCCO3)c(-c3ccc(C)cc3)[nH]2)c1 (stereo not given) -18.4%
COc1ccc(NC(=O)Cn2c(=O)n(CCC(C)C)c(=O)c3cccnc32)cc1Cl -9.62%
CCOc1ccc(C2CC(=O)NC(NC(=O)c3ccc(C)cc3)=N2)cc1 (stereo not given) -20.2%
CCOc1ccc(NC(=O)c2cc3c(C)nn(-c4ccccc4)c3s2)cc1 -10.2%
Cc1ccc(OCC(=O)N(Cc2ccc(Cl)cc2)Cc2ccco2)cc1C -9.05%
Cc1cc(C)cc(NC(=O)c2cc(C)nc3c2c(C)nn3-c2ccccc2)c1 -20.7%
Cc1cccc(Cn2cc(/C=C(/C#N)C(=O)Nc3cccc(Cl)c3)c3ccccc32)c1 -18.5%
CCN(C(=O)c1cc2c(=O)oc3ccccc3c2s1)c1ccc(C)c(C)c1 -10.4%
Cc1ccc(Cn2c(C(=O)O)c(CNC3CCCCC3)c3ccc(C)cc32)cc1 -2.11%
CC(C)NC(=O)C1CCC(Cn2c(=O)c3sccc3n(CC(=O)N3CCCC3)c2=O)CC1 (stereo not given) -6.26%
Cc1ccccc1Nc1cc(C(=O)NC2CCCC2)c2ccccc2n1 -4.64%
COc1ccc(NC(=O)c2ccc3c(=O)n4nc(Nc5ccccc5C)sc4nc3c2)cc1Cl -25.1%
Cc1ccccc1C(=O)Nc1ccccc1OCc1cc(=O)n2ccccc2n1 -9.56%
Cc1ccc(C(=O)NCC(c2ccc3c(c2)OCO3)N2CCN(c3ccc(F)cc3)CC2)cc1 (stereo not given) -9.14%
CCOc1ccccc1NC(=O)Cn1c(=O)n(Cc2nc(C)no2)c(=O)c2ccccc21 -11.2%
Clc1ccccc1CNc1ncnc2c1nc1n2CCCC1 -12.5%
CCN(CC)c1nc2c(S(=O)(=O)c3ccccc3)nnn2c2ccc(Cl)cc12 -9.33%
Cc1cccc(CS(=O)(=O)Cc2ccc(C(=O)NCc3ccccc3)o2)c1 -14.5%
Cc1cccc(-c2nc(S(=O)(=O)c3ccc(Cl)cc3)c(N3CCCCCC3)o2)c1 -12%
CCOc1ccc(CCNC(=O)c2c(C)oc3ncn(CC(C)C)c(=O)c23)cc1 -16.4%
O=C(NCc1ccc(F)cc1)C1CCN(S(=O)(=O)c2ccc3c(c2)CCCN3C(=O)C2CCC2)CC1 6.43%
Cc1ccccc1C(=O)Oc1cc(-c2ccc3c(c2)OCO3)cc(=O)c2c(C)oc(C)c12 -6.04%
O=C(COc1ccccc1Cl)N(Cc1ccco1)Cc1ccco1 -7.76%
CN(C)c1ccc(NC(=O)CSc2nc(-c3ccco3)cc(C(F)(F)F)n2)cc1 -14.2%
COc1ccccc1N1CCN(S(=O)(=O)c2c(C)sc3ncn(CC(=O)Nc4ccc(C(C)C)cc4)c(=O)c23)CC1 -19.2%
Cc1ccc(N2CCN(C(=O)c3ccc(Nc4nc5ccccc5n5nnnc45)cc3)CC2)c(C)c1 -11.2%
COc1ccc(-n2c(=O)c3c4c(sc3n(CC(=O)N3CCCCC3C)c2=O)CCC4)c(OC)c1 (stereo not given) -1.81%
CC1CCN(CCCNC(=O)CN2C(=O)CSc3ccc(S(=O)(=O)N4CCC(C)CC4)cc32)CC1 -11.6%
Cc1cc(C)cc(NC(=O)C2CCCN(c3cnccn3)C2)c1 (stereo not given) -0.298%
O=C(NCc1ccc(F)cc1)c1cnc(N2CCOCC2)c2ccccc12 -6.53%
Cc1ccc(S(=O)(=O)c2cnc(SCC(=O)Nc3ccccc3C(F)(F)F)[nH]c2=O)cc1C -0.0841%
Cc1ccc(Cl)cc1NC(=O)c1cc2c(=O)n3cccc(C)c3nc2n1C -12.5%
CCOc1cc(CNC(=O)c2ccc3c(c2)nc2n3CCCCC2)ccc1OC 11.3%
CCSc1nnc2c(n1)OC(c1ccc(OC)cc1OC)N(C(C)=O)c1ccccc1-2 (stereo not given) -7%
Cc1ccc(C2=NC(c3ccc(F)cc3)=Nc3ccc(C)cc3N2)cc1 -19.1%
CCC(=O)O[C@]1(C(=O)COC)[C@@H](C)C[C@H]2[C@@H]3CCC4=CC(=O)C=C[C@]4(C)C3(F)[C@@H](O)C[C@@]21C (stereo not given in full) -3.53%
O=C(NC1CCCC1)c1cnn(-c2ccc(F)cc2F)c1C1CCNCC1 -36.4%
O=S(=O)(O)c1cc(I)c(O)c2ncccc12 -7.65%
Cc1cccc(Cn2c(=O)n(CCCCC(=O)NCc3ccc4c(c3)OCO4)c(=O)c3ccccc32)c1 -16.1%
COc1ccc(Cl)cc1NC(=O)CSc1nc2c([nH]c3ccccc32)c(=O)n1-c1ccccc1 -6.59%
Cc1ccc(S(=O)(=O)N2CCN(Cc3ccccc3)CC2)c(C)c1NS(C)(=O)=O -8.47%
Cc1ccc(NC(=O)CN2c3ccccc3S(=O)(=O)c3ccccc32)cc1F -7.94%
CCN(C(=O)c1sc2cc(OC)ccc2c1Cl)c1ccccc1 -1.23%
CN(Cc1ccccc1)Cc1c(O)ccc2c(=O)c(-c3ccccc3)c(C(F)(F)F)oc12 -33%
Cc1ccc(NC(=O)/C(C#N)=C/c2ccccc2Cl)cc1C 1.83%
COc1ccccc1OCCCCn1c(C2CC(=O)N(c3ccccc3Cl)C2)nc2ccccc21 (stereo not given) 1.86%
COc1ccccc1OCC1CNC(=O)O1 (stereo not given) -17.1%
COc1ccc(CCNC(=O)Cn2c(=O)n(-c3ccc(OC)c(OC)c3)c(=O)c3ccccc32)cc1OC -6.15%
CCN(CC)CCNC(=O)CN1C(=O)c2cccnc2Oc2ccc(C)cc21 -3.98%
COc1cc(NC(=O)Cn2c(=O)n(CC(=O)NCCc3ccc(OC)c(OC)c3)c(=O)c3sccc32)cc(OC)c1 -18.6%
Cc1nc(-c2ccc(S(=O)(=O)N3CCN(c4cccc(Cl)c4)CC3)cc2)co1 -3.87%
CC(=O)c1cccc(NC(=O)c2sc(-n3nc(C)c(CCC(C)C)c3C)nc2C)c1 -6.46%
CC(=O)NCCNc1nc2c(-c3cccc(C)c3)nnn2c2ccc(Cl)cc12 -6.45%
CSc1ccc(CNC(=O)Cc2csc3ccccc23)cc1 -8.16%
COc1ccc(-n2nnnc2C2CCN(S(=O)(=O)c3ccc(F)cc3Cl)CC2)cc1 -9.02%
COc1cccc(Nc2sc(C(=O)c3ccc4c(c3)OCO4)c(N)c2S(=O)(=O)c2ccccc2)c1 -15.4%
COc1ccc(N2CC(NC(=O)Cc3cccs3)CC2=O)cc1 (stereo not given) -7.83%
CC(=O)Nc1ccc(S(=O)(=O)NCC2CCC(C(=O)NCc3ccccc3Cl)CC2)cc1 (stereo not given) -7.68%
Cc1ccc2ncc(S(=O)(=O)c3ccccc3)c(N3CCCCC3C)c2c1 (stereo not given) -38.1%
COc1ccc(CNC(=O)CN(c2cc(C(F)(F)F)ccc2Cl)S(C)(=O)=O)cc1 -26.8%
CCn1c(C)c(C)c2cc(C(=O)NCc3ccc(N(C)C)cc3)ccc21 4.64%
COc1ccc(C2=NC3(CCCCCC3)N(CC(=O)Nc3ccc(C)c(C)c3)C2=O)cc1 -12%
Cc1ccccc1Nc1sc(C(=O)c2ccc(F)cc2)c(N)c1C(=O)NCCc1ccccc1 -6.85%
Cc1ccc(C(=O)c2oc3ccccc3c2NC(=O)c2cc(-c3ccc(Cl)cc3)on2)cc1 -11%
O=C1[C@H](CC[C@H](O)c2ccc(F)cc2)[C@@H](c2ccc(O)cc2)N1c1ccc(F)cc1 -7.9%
COc1ccc(Cl)cc1NC(=O)Cn1ncc2c3ccccc3n(Cc3ccccc3)c2c1=O -8.07%
CCn1cc(C(=O)NCCc2ccc(OC)c(OC)c2)c(=O)c2cc(S(=O)(=O)N3CCOCC3)ccc21 -2.34%
Cc1ccc(C(=O)Nc2nnc(S(=O)(=O)N(C)Cc3ccco3)s2)cc1 -20.1%
Cc1ccc(C)c(NC(=O)CN2CCN(C3CCCCC3)C(=O)C2=O)c1 -18.3%
COc1cccc(CNC(=O)c2ccc3c(c2)nc2n3CCOC2)c1OC -4.8%
Cc1cccc(-n2nnc(-c3nc(-c4ccccc4)no3)c2N)c1C -5.4%
CC1CCN(S(=O)(=O)c2ccc3c(ccn3CC(=O)NCc3ccccc3F)c2)CC1 -15.3%
COc1ccc(S(=O)(=O)c2c(SC)nn(CC(=O)Nc3ccc(C)c(Cl)c3)c2N)cc1 -19.3%
Cc1ccc(-c2noc(C(C)NC(=O)c3ccco3)n2)cc1 (stereo not given) -11.5%
Cc1cnc(C(=O)NCCc2ccc(S(=O)(=O)NC(=O)NC3CCCCC3)cc2)cn1 -13.6%
O=C(Nc1cccc(C(F)(F)F)c1)c1cc(-c2ccc(Cl)cc2)on1 -9.33%
CCc1nc2c(cnn2-c2ccc(C)cc2)c(=O)n1-c1ccc(C)cc1 -10%
CC(C)C(=O)Nc1cccc(C(F)(F)F)c1 -12%
COCCCNC(=O)CSc1nc2cc3c(cc2c(=O)n1CCCCCC(=O)NCCc1ccc(OC)c(OC)c1)OCO3 -1.15%
CC(C)(C)C1CCc2nc(NC(=O)COc3ccccc3[N+](=O)[O-])sc2C1 (stereo not given) -15.4%
COc1ccc2c(CNC3CCCC3)c(C(=O)O)n(Cc3ccccc3C)c2c1 -19.5%
CCc1nn2c(=O)cc(COC(=O)c3cccc(NC(=O)c4ccccc4C)c3)nc2s1 -19%
